This note sets out measurements from publication PMC4336329 (PLoS ONE, 2015).

SMILES strings stand for the structures. Among all 310,000 compounds or so, about 14,000 (4.5%) showed an effect of 50% or more. The effect is printed as a negative number. The list shows a part of the results.
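Further: peak tail current of the secondary pulse compared with the same well before compound.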

The experiment deals with human ether-à-go-go-related gene (hERG) potassium channel (human, UniProt Q12809). Kind of experiment: primary screen, population patch clamp on CHO cells stably expressing hERG.
Sequence of human ether-à-go-go-related gene (hERG) potassium channel (Q12809 whole entry, looked up): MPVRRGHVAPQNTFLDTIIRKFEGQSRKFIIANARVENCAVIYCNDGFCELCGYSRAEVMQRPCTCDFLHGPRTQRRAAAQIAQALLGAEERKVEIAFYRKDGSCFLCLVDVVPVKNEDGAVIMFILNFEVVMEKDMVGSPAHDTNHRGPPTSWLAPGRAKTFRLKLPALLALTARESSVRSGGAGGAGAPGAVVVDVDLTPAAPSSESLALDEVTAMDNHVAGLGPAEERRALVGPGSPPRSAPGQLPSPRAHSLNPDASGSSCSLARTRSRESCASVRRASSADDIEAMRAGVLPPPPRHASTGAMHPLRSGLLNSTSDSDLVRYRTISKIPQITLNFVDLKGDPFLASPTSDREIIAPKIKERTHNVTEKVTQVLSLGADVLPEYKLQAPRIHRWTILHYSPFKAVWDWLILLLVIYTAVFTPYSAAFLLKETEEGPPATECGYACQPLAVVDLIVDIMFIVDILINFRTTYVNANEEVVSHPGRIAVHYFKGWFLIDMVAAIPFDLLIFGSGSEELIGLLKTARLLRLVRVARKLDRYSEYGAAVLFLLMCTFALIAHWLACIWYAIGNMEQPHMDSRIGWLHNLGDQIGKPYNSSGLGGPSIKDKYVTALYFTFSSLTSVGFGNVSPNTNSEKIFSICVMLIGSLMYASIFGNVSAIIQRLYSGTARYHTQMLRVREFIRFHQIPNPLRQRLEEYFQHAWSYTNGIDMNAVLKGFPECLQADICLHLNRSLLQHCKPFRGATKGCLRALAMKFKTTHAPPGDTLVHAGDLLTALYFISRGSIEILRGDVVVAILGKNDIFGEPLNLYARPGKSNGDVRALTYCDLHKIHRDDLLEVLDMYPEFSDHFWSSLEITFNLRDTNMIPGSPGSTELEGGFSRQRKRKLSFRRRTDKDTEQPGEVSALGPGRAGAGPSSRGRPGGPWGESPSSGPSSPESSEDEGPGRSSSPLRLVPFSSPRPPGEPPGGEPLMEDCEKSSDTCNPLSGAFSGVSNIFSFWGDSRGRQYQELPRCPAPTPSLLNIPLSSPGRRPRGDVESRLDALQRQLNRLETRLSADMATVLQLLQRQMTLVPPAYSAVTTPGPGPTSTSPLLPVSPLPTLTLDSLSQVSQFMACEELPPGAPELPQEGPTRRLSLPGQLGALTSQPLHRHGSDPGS
On to `Cc1ccc(-c2nnc(C)c(N3CCOCC3)n2)cc1`, for which the “hERG current change (%, negative = inhibition) at 10uM” value was -19%.
With `Cc1ccc(NC(=O)C2CCN(S(=O)(=O)c3ccc4c(c3)NC(=O)CO4)CC2)cc1C` the figure was -20.4%.
With `COc1ccc(OC)c(C2=NOC(C(=O)Nc3c(C)n(C)n(-c4ccccc4)c3=O)C2)c1` (stereo not shown) the figure was 21.4%.
`COc1ccc(-c2nc(CSCC(=O)NCCC3=CCCCC3)c(C)o2)cc1OC`: the “hERG current change (%, negative = inhibition) at 10uM” value is recorded as -14.2%.
Consider `C/C(=C\c1ccc2c(c1)OCO2)C1Nc2cccc3cccc(c23)N1`, for which the “hERG current change (%, negative = inhibition) at 10uM” value was 16.8%.
On to `O=C1C(Cc2ccccc2)NC(=S)N1Cc1ccccc1` (stereo not shown), for which the “hERG current change (%, negative = inhibition) at 10uM” value worked out at 13.5%.
Turning to `O=C(COC(=O)c1ccc(F)cc1)NC1CC1`, the “hERG current change (%, negative = inhibition) at 10uM” value was found to be 7.11%.
With `Cc1cc(NC(=O)c2cc(-c3ccco3)on2)no1` the figure was -6.18%; with `COc1ccccc1NS(=O)(=O)c1ccc(N/N=C/c2c(C)nn(-c3ccccc3)c2N2CCCC2)c([N+](=O)[O-])c1`, 6.11%; with `Cc1ccc(NC(=O)c2cccc(F)c2)cc1S(=O)(=O)N1CCCCCC1`, 12%.
Turning to `C[C@@H]1CC=C[C@H]2[C@H]1C(=O)N(Cc1ccccc1)[C@H]2c1ccc(C(F)(F)F)cc1`, the “hERG current change (%, negative = inhibition) at 10uM” value is on record as 10.4%.
Consider `COC(=O)[C@@H]1CC[C@H](C)[C@@H](c2ccc(C)cc2)N1C(=O)c1ccc(/C=N/OCC[C@@H]2C=C[C@H](OC(C)=O)[C@@H](COC(C)=O)O2)cc1`, for which the “hERG current change (%, negative = inhibition) at 10uM” value is on record as -16.6%.
Take `COc1ccc(NC(=O)C2CCCN(C(=O)c3ccc(Cl)cc3)C2)cc1S(=O)(=O)N(C)C` (stereo not shown): the “hERG current change (%, negative = inhibition) at 10uM” value is -23.9%.
With `COc1ccc(C(=O)C2CCCN(C(=O)c3csc(C(C)=O)c3)C2)c(C)c1` (stereo not shown), the “hERG current change (%, negative = inhibition) at 10uM” value was -1.6%.
With `Cc1ccc(-c2noc(CCC(=O)NCCc3ccccc3Cl)n2)cc1` the figure was 11.7%; with `COc1ccc(S(=O)(=O)n2cccc2)cc1`, 16%.
Turning to `O=C(O)c1ccc(Cl)c(S(=O)(=O)NC(Cc2c[nH]c3ccccc23)C(=O)O)c1` (stereo not shown), the “hERG current change (%, negative = inhibition) at 10uM” value turned out to be 0.925%.
For the compound `CN(C(=O)COC(=O)c1ccc(CN2CCCC2=O)cc1)c1ccccc1`, the “hERG current change (%, negative = inhibition) at 10uM” value is recorded as -30.9%.
With `Cc1cc(F)ccc1NC(=O)C(C)n1c2ccccc2c2nc(=O)cc(C)n21` (stereo not shown) the figure was 5.58%.
With `CC(C)(C)C1CCC(=NNC(=O)c2cc(-c3ccccc3)n[nH]2)CC1` (stereo not shown) the figure was 7.95%; with `CCCCN1C(=O)NC(NC(=O)c2ccco2)(C(F)(F)F)C1=O` (stereo not shown), 5.12%; with `COc1ccc(NC(=O)CS(=O)(=O)Cc2nc(-c3ccc(C)cc3)oc2C)cc1`, 4.32%.
